Test results: the RNAGym collection of RNA variant scans (doi:10.1093/nar/gkz1192)
The source gives no read counts; variants with many changes may rest on few reads.

B1: CPEB3 Ribozyme (parent)
chain: UAACAGGGGGCCACAGCAGAAGCGUUCACGUCGCAGCCCCUGUCAGAUUCUGGUGAAUCUGCGAAUUCUGCUGUAUAUCUC

Variants of: B1
Assay: self-cleavage, relative activity (ratio to wild type); higher = more cleavage; in vitro, sequencing
Outline: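 For each CPEB3 ribozyme variant, relative activity is its cleaved/total read fraction divided by the unmutated ribozyme's. Barcoded error-prone PCR libraries were transcribed by T7 RNA polymerase (5 hours, 37°C) and held in DNase I for 15 min before an EDTA stop, with cleavage occurring throughout. Template-switching reverse transcription and Illumina sequencing were used to read the RNAs. A 5-read minimum applied, and results are the mean of three batches.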

**Q.** Which self-cleavage does the source give for UAACAAGGGGCCACAGCAGAAGCGUGCACGUCGCAUCCCCUGUCAGAUUCUGGAGAAUCUGCGAAUUCUGCUGUAUAUCUC [G6A U26G G36U U54A] here?
**A.** 0.05

**Q.** For UAACAAGGGGCCACAGCAGAAGCGUUCACGACGCAGCCCUUGUCAGAUUCUGGUGAAUCUGCGAAUUCUGCUGCAUAUCUC [G6A U31A C40U U74C], which self-cleavage is on record?
**A.** 0.06

**Q.** Which self-cleavage does the source give for UAACAAGGGGCCACAGCAGAAGCGUUCACGACGCAGCCCCCGUCAGAUUCUGGAGAAUCUGUGAGUUCUGCUGUAUAUCUC [G6A U31A U41C U54A C62U A65G] here?
**A.** 0.06

**Q.** Which self-cleavage does the source give for UAACAAGGGGCCACAGCAGAAGCGUUCACGACGCAGCCCCUGUCAGAUUCUGGUGAAUCUGCGAAUUCUGCAGUAUAUCUC [G6A U31A U72A] here?
**A.** 0.21

**Q.** With UAACAAGGGGCCACAGCAGAAGCGUUCACGCCGCUGCCCGUGUCAGAUUCUGGUGAAACUGCGAAUUCUGCUGUAUAUCUC [G6A U31C A35U C40G U58A] as the variant, how does the self-cleavage read?
**A.** 0.07

**Q.** Which self-cleavage does the source give for UAACAAGGGGCCACAGCAGAAGCGUUCACGCCGCAGCCCCUGUCAGAUUCUGGCGAAUCUGCGAAUUCUGCUGUAUAUCUC [G6A U31C U54C] here?
**A.** 0.33

**Q.** For UAACAAGGGGCCACAGCAGAAGCGUUCACGGCGCAGCCCCUGUCAGAUUCUGGUGAAUCUGCGUAUUCUGCUGUAUAUCUC [G6A U31G A64U], which self-cleavage is on record?
**A.** 0.19

**Q.** Which self-cleavage does the source give for UAACAAGGGGCCACAGCAGAAGCGUUCACGUCGCAGCCCCAGACAGAUUCUGGUGAAACUGCGAAUCCUGCUGAAUAUCUC [G6A U41A U43A U58A U67C U74A] here?
**A.** 0.21

**Q.** With UAACAAGGGGCCACAGCAGAAGCGUUCACGUCGCAGCCCCCGUCAGGUUAUGGUGAAUCCGCGAAUUCUGCUGUAUAUCUC [G6A U41C A47G C50A U60C] as the variant, how does the self-cleavage read?
**A.** 0.18

**Q.** Which self-cleavage does the source give for UAACAAGGGGCCACAGCAGAAGCGUUCACGUCGCAGCCCCCGUCAGAUUCUGGUGAAUCUGCGGAUUCUGCUGUAUAUCUC [G6A U41C A64G] here?
**A.** 0.41

**Q.** Which self-cleavage does the source give for UAACAAGGGGCCACAGCAGAAGCGUUCACGUCGCAGCCCCCGUCAGAAUCUGGUGAAUCUGCGAAUCCUGCUGUAUGUCUC [G6A U41C U48A U67C A77G] here?
**A.** 0.15

**Q.** With UAACAAGGGGCCACAGCAGAAGCGUUCACGUCGCAGCCCCCGUCAGACUCUGGUGAAACUGCGAACUCUGCUCUAUACCUC [G6A U41C U48C U58A U66C G73C U78C] as the variant, how does the self-cleavage read?
**A.** 0.04

**Q.** For UAACAAGGGGCCACAGCAGAAGCGUUCACGUCGCAGCCCCCGUCAGAUUCUGGAGAAUCUGCGAACUCUGCUGUAUAUCUC [G6A U41C U54A U66C], which self-cleavage is on record?
**A.** 0.21

**Q.** Which self-cleavage does the source give for UAACAAGGGGCCACAGCAGAAGCGUUCACGUCGCAGCCCCCGUCAGAUUCUGGUGAACCUGCGAAUUCUGCUGUAUAUCUC [G6A U41C U58C] here?
**A.** 0.06

**Q.** With UAACAAGGGGCCACAGCAGAAGCGUUCACGUCGCAGCCCCCGUCAGAUUCUGGUGAAUCUGCGAAUUCUGCUGUAUAUCCC [G6A U41C U80C] as the variant, how does the self-cleavage read?
**A.** 0.19

**Q.** With UAACAAGGGGCCACAGCAGAAGCGUUCACGUCGCAGCCCCUGACAGAUUCUGGUGAAUCUGCGAACUCUGCUGUAUACCUC [G6A U43A U66C U78C] as the variant, how does the self-cleavage read?
**A.** 0.1

**Q.** For UAACAAGGGGCCACAGCAGAAGCGUUCACGUCGCAGCCCCUGCCGGAUUCAGGUGAAUCUGCGAAUUCUGCUGUAUAUCUC [G6A U43C A45G U51A], which self-cleavage is on record?
**A.** 0.18

**Q.** For UAACAAGGGGCCACAGCAGAAGCGUUCACGUCGCAGCCCCUGCCAGAUUCAGGUGAAUCUGCGAAUUCUGCUGUAUAUCUC [G6A U43C U51A], which self-cleavage is on record?
**A.** 0.23

**Q.** For UAACAAGGGGCCACAGCAGAAGCGUUCACGUCGCAGCCCCUGCCAGAUUCCGGUGAAUCUGCGAAUUCCGCUGUAUAUCUC [G6A U43C U51C U69C], which self-cleavage is on record?
**A.** 0.28

**Q.** For UAACAAGGGGCCACAGCAGAAGCGUUCACGUCGCAGCCCCUGCCAGAUUCUGGUGAAUCUGCGAAUUCUGCAGUAUACCUC [G6A U43C U72A U78C], which self-cleavage is on record?
**A.** 0.06

**Q.** Which self-cleavage does the source give for UAACAAGGGGCCACAGCAGAAGCGUUCACGUCGCAGCCCCUGGCAGAAUCUGGUGAAUCUGCGAAUUCAGCUGUAUAUCUC [G6A U43G U48A U69A] here?
**A.** 0.2

**Q.** With UAACAAGGGGCCACAGCAGAAGCGUUCACGUCGCAGCCCCUGUCAGACUCUGGUGAAUCUGCGAAUUCUGCUGUAUGUCUC [G6A U48C A77G] as the variant, how does the self-cleavage read?
**A.** 0.49

**Q.** With UAACAAGGGGCCACAGCAGAAGCGUUCACGUCGCAGCCCCUGUCAGACUCAGGUGAUUCUGCGAAUUCUGCUGUAUAUCUC [G6A U48C U51A A57U] as the variant, how does the self-cleavage read?
**A.** 0.05

**Q.** Which self-cleavage does the source give for UAACAAGGGGCCACAGCAGAAGCGUUCACGUCGCAGCCCCUGUCAGAUUCAGGUGAGUCUGCGAAUUCUGCUGUAUAUCUC [G6A U51A A57G] here?
**A.** 0.18

**Q.** Which self-cleavage does the source give for UAACAAGGGGCCACAGCAGAAGCGUUCACGUCGCAGCCCCUGUCAGAUUCAGGUGAAUCUGCGUAUUCUGCUGUAUAUCUC [G6A U51A A64U] here?
**A.** 0.13

**Q.** Which self-cleavage does the source give for UAACAAGGGGCCACAGCAGAAGCGUUCACGUCGCAGCCCCUGUCAGAUUCCGGUGAAUCUGCGAAUUCUGCUGUACAUCUC [G6A U51C U76C] here?
**A.** 0.41

**Q.** With UAACAAGGGGCCACAGCAGAAGCGUUCACGUCGCAGCCCCUGUCAGAUUCUGGUGAAUCAGCGAAUUCUGAUGUAUAUCUC [G6A U60A C71A] as the variant, how does the self-cleavage read?
**A.** 0.04

**Q.** Which self-cleavage does the source give for UAACACGGGGCCCCAGCAGAAGCGUUCACGUCGCAGCCCCUGUCAGAUUCUGGUGUAUCUGCGAAUACUGCUGUAUAUCUC [G6C A13C A56U U67A] here?
**A.** 0.25

**Q.** Which self-cleavage does the source give for UAACACGGGGCCUCAGCAGAGGCGUUCACGUCGCAGCCCCUGUCAGAUUCUGGUGAAUCUGCGAAUUCUGCUGUAUAUCUC [G6C A13U A21G] here?
**A.** 0.25

**Q.** For UAACACGGGGCCACUGCUGAAGCGUUCACGUCGCAGCCCCUGUCAGUUUCUGGUGAAUCUGCGAACUCUGCUGUAUACCUC [G6C A15U A18U A47U U66C U78C], which self-cleavage is on record?
**A.** 0.04

**Q.** For UAACACGGGGCCACAGCUGAAGCGUUCACGUCGCAGCCCCUGUCUGAUUCUGGUGAAUCUGCGAAUUCUGCUGUAUAUCUC [G6C A18U A45U], which self-cleavage is on record?
**A.** 0.31

**Q.** For UAACACGGGGCCACAGCAGGAGCGUACACGCCGCAGCCCCUGACAGAUUCUGGUGAAUCAGCGAAUUCCGCUGUAUAUCUC [G6C A20G U26A U31C U43A U60A U69C], which self-cleavage is on record?
**A.** 0.05

**Q.** For UAACACGGGGCCACAGCAGGAGCGUUCACGUCGCAGCCCCUGUCAGAUUCUGGUGAAUCUGCGAACUCUGCUGUAUAUCUC [G6C A20G U66C], which self-cleavage is on record?
**A.** 0.38

**Q.** For UAACACGGGGCCACAGCAGAAGCGUUCUCGUCGCAGCCCCUGUCAGAUUCUGGUGAAUGUGCGGAUUCUGCUGUAUAUCUC [G6C A28U C59G A64G], which self-cleavage is on record?
**A.** 0.2
